In PubChem BioAssay AID2546 (National Center for Advancing Translational Sciences (NCATS), 2010):
Out of some 310,000 compounds screened, about 11,000 (3.5%) were called active. Inconclusive means that the source gave no clear call. Such entries were picked first, then a sample of the others. The call rests on the fitted dose curve; in most records, active means well fitted inhibition curve with a large enough effect; inconclusive means small, poorly fitted or top-dose-only effect, or effect the other way; inactive means flat fitted curve, though single readings scatter. No potency is given beside an inconclusive call; the fits are too rough.
On the % scale 0 is the no-effect control and ±100 the full control effect; potency means the concentration at half of the fitted maximal effect; tags describe the fitted curve by direction and shape.

Experiment: VP16 counterscreen qHTS for inhibitors of ROR gamma transcriptional activity;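 further: Gal4-VP16 expression switched on by copper sulfate through the metallothionein promoter; nearly all actives have a fitted effect of over 50% in size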
Conditions: Drosophila S2 Gal4-VP16 UAS-luciferase, luminescence, 20 h; activity, negative = inhibition: at 53.6 µM (top of the series)
With `Cc1ccc2c(c1)N(CCCC(=O)Nc1cccc(C(F)(F)F)c1)C(=O)CO2` the “activity, negative = inhibition” value was inactive: 6.24%.
With `CN(CC(=O)Nc1ccccc1)CC(=O)Nc1ccccc1Cl` the “activity, negative = inhibition” value was inactive: -2.02%.
For `COc1cccc(-c2nn(C)c3sc(C(=O)N4CCN(c5ccccn5)CC4)cc23)c1`, the Potency was inconclusive [inhibitor, single point].
With `Cc1ccc(C)c(SCC(=O)Nc2nnc(-c3ccccc3)o2)c1` the Potency was active: 5.01 µM.
For `COc1cccc(CC2CC(=O)N(c3ccc4c(C)cc(=O)oc4c3)C2=O)c1` (stereo unspecified), the “activity, negative = inhibition” value was inactive: 7.9%.
With `O=C(Nc1nc(-c2ccccn2)cs1)c1ccc([N+](=O)[O-])o1` the Potency was inconclusive [inhibitor, partial curve].
With `CC1CC(C)CN(c2ccc(C(=O)NCc3ccc4c(c3)OCO4)cc2[N+](=O)[O-])C1` (stereo unspecified) the “activity, negative = inhibition” value was inactive: 10.9%.
In the case of `Cc1onc(-c2c(Cl)cccc2Cl)c1C(=O)NC(=S)N1CCOCC1`, the Potency was active: 0.708 µM.
In the case of `Cc1c(O)nc(SCC(=O)Nc2nccs2)n(-c2ccccc2F)c1=O`, the “activity, negative = inhibition” value was inactive: 4.65%.
For `O=c1c2ccccc2c(C=NCc2ccccn2)c(O)n1-c1ccccc1`, the “activity, negative = inhibition” value was inactive: -16.4%.
In the case of `Cc1ccc(N/C=C/C(=O)c2cccs2)cc1`, the Potency was active: 8.91 µM.
In the case of `CCOC(=O)c1c(N)nn(C(C)=O)c1-c1ccccc1`, the Potency was inconclusive [inhibitor, single point].
For `CCOC(=O)/C=C/C(=O)Nc1ccccc1-c1ccccc1NC(=O)/C=C/C(=O)OCC`, the Potency was inconclusive [inhibitor, single point].
For `C/C(=C\C(=S)Nc1ccccc1)Nc1ccc2ccccc2c1`, the Potency was active: 3.55 µM.
For `COc1cc(/C=C2/C(=O)NN(c3cccc(C)c3)C2=O)ccc1OC(=O)c1ccco1`, the Potency was inconclusive [inhibitor, single point].
In the case of `Cc1ccccc1C(=O)N1CCC(C(=O)Nc2ccc(S(=O)(=O)N3CCCCC3)cc2)CC1`, the Potency was inconclusive [inhibitor, single point].
For `Cc1cccc(OCC(=O)Nc2cccc(-c3nnc(-c4ccccc4)o3)c2)c1C`, the Potency was inconclusive [activator, full curve].
In the case of `CCc1ccc(C2NC(=S)NC3=C2C(=O)CC(C)(C)C3)cc1` (stereo unspecified), the Potency was inconclusive [inhibitor, single point].
With `O=C1CCc2cc(OCCCCc3nnnn3C3CCCCC3)ccc2N1` the Potency was inconclusive [inhibitor, partial curve].
In the case of `O=C(Nc1ccc(Cl)cn1)c1ccc2c(c1)OCCO2`, the Potency was inconclusive [inhibitor, single point].
With `COc1cc(/C=N/NC(=O)c2cccc(NC(=O)c3ccccc3C)c2)ccc1O` the “activity, negative = inhibition” value was inactive: -7.69%.
